Measured values published in PubChem BioAssay (NCI).
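All cell lines were grown in 96-well plates and treated with compound for 48 hours. GI50 = concentration required for 50% inhibition of growth. TGI: concentration producing complete growth inhibition.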

tested on: NCI-H322M lung; test: NCI-60 cell line screen, 48 h

| SMILES | TGI [µM] | GI50 [µM] |
| --- | --- | --- |
| CC1(C)N/C(=C\[N+](=O)[O-])C(C)(C)N1O | > 10 |  |
| CC1(C)OCN(c2ccc(N3CCOCC3)cc2)Cn2c1nc1ccccc12 | > 100 |  |
| O=C(NC1=C(Cl)C(=O)c2ccccc2C1=O)c1ccccc1 | > 100 |  |
| CCC[CH2][Sn]([CH2]CCC)([O]C(=O)CN)[O]C(=O)CN | > 100 | > 100 |
| O=C(Oc1ccc[nH]c1=O)c1cc([N+](=O)[O-])cc([N+](=O)[O-])c1 | > 100 | > 100 |
| NC(=Nc1ccccc1Cl)c1ccccc1N | > 100 |  |
| O=C1C=CC(=O)C2C1C1(Cl)C(Cl)=C(Cl)C2(Cl)C1(Cl)Cl (stereo unspecified) | 12.8 | 2.96 |
| CCCCCCNCCc1cnc[nH]1 | > 100 |  |
| C=CCn1c(N)c(C#N)c(C#N)c1CCC | > 100 |  |
| CC1=C2C(O)C(C(C)C(=O)N(C)C)CCC2(C)C=CC1=O (stereo unspecified) | > 100 |  |
| N#Cc1c(-c2ccc(Cl)cc2)c2c(n(C3OC(CO)C(O)C(O)C3O)c1=S)CCCC2 (stereo unspecified) | > 100 |  |
| O=c1[nH]c2ccccc2cc1-c1nc2ccc(Cl)cc2[nH]1 | > 100 | 3.65 |
| COc1ccc2c(c1)/C(=C\c1c(Cl)[nH]c3cc(C)c(OC)cc13)C(=O)N2 | 15.7 |  |
| CCN1C(=O)/C(=C/c2c(Cl)[nH]c3cc(C)c(OC)cc23)c2ccccc21 | > 100 | 8.39 |
| CCCCCCCCCCCC(=O)OCCOCCOCCOCCOCCOC(=O)CCCCCCCCCCC | > 100 |  |
| COC(=O)[C@@H]1C=C[C@H](OC2OC(COC(C)=O)C(OC(C)=O)C(OC(C)=O)C2OC(C)=O)n2c(=O)n(-c3ccccc3)c(=O)n21 (stereo partly specified) | 28.5 |  |
| C=C1C(=O)OC2/C=C(\C(=O)O)CC/C=C(\C)CC(OC(=O)/C=C(\C)CC)C12 (stereo unspecified) | 31.1 |  |
| COc1cc(NCC(C#N)C#N)ccc1N=Nc1ccc(Cl)cc1 | > 100 |  |
| NC1=NN(c2ccccc2)C(=O)C1C(=O)CCC(=O)Nc1cccc(Cl)c1 (stereo unspecified) | > 100 |  |
| CN(C)CCOc1ccc([N+](=O)[O-])c2cccnc12 | > 100 |  |
| C[C@]12CCc3sc(Nc4ccc(OC(F)(F)F)cc4)nc3C1=CC[C@@H]1[C@@H]2CC[C@]2(C)C(=O)CC[C@@H]12 | 48.9 | 6.05 |
| CN(C)CCC(=O)N1C/C(=C\c2ccc(Cl)c(Cl)c2)C(=O)/C(=C/c2ccc(Cl)c(Cl)c2)C1 | 1.69 |  |
| CC(=O)c1ccc(NC(=O)/C(CC(=O)c2sc(-c3cccnc3)nc2C)=N/NC(N)=O)cc1 | > 100 |  |
| Nc1ccccc1CCN1CCN(CCCc2ccccc2)CC1 | > 100 |  |
| O=C(NN1C(=O)C(Cl)C1c1ccc(Cl)cc1)c1c(Cl)c(Cl)c(Cl)c(Cl)c1-c1nc2ccccc2[nH]1 (stereo unspecified) | > 100 |  |

| SMILES | TGI [µM] | GI50 [µM] |
| --- | --- | --- |
| N/N=C\c1c2ccccc2c(=O)n2c1oc1ccccc12 | 11.2 | 1.95 |
| O=S(=O)(C1=CC(S(=O)(=O)c2ccccc2)CN(Cc2ccccc2)C1c1cccc2ccccc12)c1ccccc1 (stereo unspecified) | > 69 |  |
| COc1ccc(CC2COc3cc(OC)cc(OC)c3C2=O)cc1 (stereo unspecified) | > 100 |  |
| COc1cc(NS(=O)(=O)c2ccc(C)cc2)c2nccnc2c1 | > 100 |  |
| Cc1ccc(S(=O)(=O)OC2CC=CC2)cc1 | > 100 |  |
| CCCCCCCC(CC(=O)NC(CO)C(=O)NC(CO)CC(C)C)OC(=O)CC(CCCCCCC)OC(=O)CC(CCCCCCC)OC1OC(C)C(O)C(OC2OC(C)C(OC(C)=O)C(O)C2O)C1O (stereo unspecified) | 22.8 |  |
| O=NNc1ccc2ccccc2n1 | > 100 |  |
| COc1cc2c(cc1OCCCCCCCCCCN1C(=O)c3cccc4cccc(c34)C1=O)N=C[C@@H]1CCCN1C2=O | 42.7 |  |
| CSc1c(C(=O)Nc2ccccc2)c(N)n(N)c(=O)c1C#N | > 100 |  |
| CC(C)(C)C1=C(Br)C(C(C)(C)C)OP1(=O)O (stereo unspecified) | > 100 |  |
| Cc1n(CC(C)C)c2c([n+]1C)C(=O)c1ccccc1C2=O | 1.13 |  |
| CCCC1(CC(=O)O)OCCc2c1[nH]c1ccccc21 (stereo unspecified) | > 100 |  |
| NC(N)=NS(=O)(=O)c1ccc(NNc2c3ccccc3nc3ccccc23)cc1 | 60 |  |
| CCOC(=O)/C=C(\C(=O)OCC)n1cc(C)c(=O)n(Cc2cn(CCCCOC(C)=O)nn2)c1=O | 46.2 |  |
| CCOC(=O)c1ccc(N=C/C=C(\Nc2ccc(C(=O)OCC)cc2)C23CC4CC(CC(C4)C2)C3)cc1 | > 100 |  |
| Cc1ccc(C)c(NC(=O)CC2Sc3ccccc3NC2=O)c1 (stereo unspecified) | > 100 | > 70.2 |
| COCCOC(=O)C1=C(O)c2ccccc2S(=O)(=O)N1C | > 100 |  |
| CCN(CC)CCNC(Cc1ccccc1)c1ccc(OCc2ccccc2)cc1 (stereo unspecified) | 20.2 | 7.15 |
| O=c1[nH]c2cc(C(F)(F)F)ccc2nc1C(F)(F)F | > 100 |  |
| O=C1C(=O)c2ccccc2C(O)=C1C(C1=C(O)c2ccccc2C(=O)C1=O)c1ccc(Cl)cc1 | 31.9 |  |
| CC(=O)OC1OC([C@H]2c3cccc(O)c3C(=O)c3c(O)cc(C)cc32)C(O)C(O)C1O (stereo partly specified) | 1.17 | 0.141 |
| COC1(OC)N=C(N)C2(C#N)C(c3ccccc3)NC3=C(CCC3)C12C#N (stereo unspecified) | > 100 |  |
| [N-]=[N+]=NCCCn1c2c(c3ccc([N+](=O)[O-])cc3c1=O)C(=O)c1ccccc1-2 | > 100 | > 100 |
| NC(CSC(c1ccccc1)(c1ccccc1)c1ccccc1)C(=O)NCC(=O)O (stereo unspecified) | > 100 | 4.85 |
